From PubChem BioAssay AID686978 (National Center for Advancing Translational Sciences (NCATS), 2013)
Values joined by “and” are separate entries in the source; they are usually repeats but may differ in a detail not shown here. Identical values can stand only once. Hit rate of the full screen: of about 420,000 compounds, about 64,000 (15%) were called active. The inconclusive results got no clear call from the source; some entries with a clear call stand among them for comparison. Calls follow the shape of the dose curve; as a rule, active = well fitted inhibition curve with a large enough effect; inconclusive = small, poorly fitted or top-dose-only effect; inactive = flat fitted curve, though single readings scatter. Potencies of inconclusive entries are left out as doubtful fits.
% is scaled to controls: 0 for no effect and ±100 for the full control effect; potency is read from the fitted curve at half-maximal effect; tags tell the direction and shape of the fitted curve.

Test: qHTS for Inhibitors of human tyrosyl-DNA phosphodiesterase 1 (TDP1): qHTS in cells in absence of CPT; also: nearly all actives have a fitted effect of over 55% in size
Settings: DT40 Tdp1-/- hTDP1 cells, no CPT, ATP luminescence, 48 h; activity change, negative = growth inhibition: at 46.2 µM (top of the series) unless noted
Procedure, shortened: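 Growth of hTDP1-complemented DT40 Tdp1-knockout cells is measured by ATP luminescence after at least 48 hr compound exposure at 37 °C, with DMSO substituting for the 20 nM CPT used in the parallel screen.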
With `CSCCC(C(=O)NC(C)(C)C)n1c(-c2ccc3c(c2)OCO3)nc2ccccc21` (configuration not stated) the Potency was active: 20.6 µM. For `COc1ccc(N2CCN(C(=O)CSc3nc4[nH]ncc4c(=O)n3-c3cccc4ccccc34)CC2)cc1`, the Potency was active: 7.31 µM. For `NC(=O)c1ccc(-n2nnnc2SCC(=O)Nc2ccccc2)cc1`, the “activity change, negative = growth inhibition” value was inactive: -16.3%. In the case of `COc1ccc(N2C(=S)NC3c4cc(Cl)ccc4OC2(C)C3C(=O)N(C)C)cc1` (configuration not stated), the Potency is reported as inconclusive [inhibitor, single point]. With `O=C(c1ccccc1OCc1ccc(Cl)cc1)N1CCN(c2ccccn2)CC1` the Potency was inconclusive [inhibitor, single point]. In the case of `O=C(c1ccc(Oc2ccc(C(F)(F)F)cn2)cc1)N1CCN(c2ccccc2)CC1`, the Potency is reported as active: 29.1 µM. With `CN(CC(=O)Nc1ccc(OC(F)(F)F)cc1)C(=O)c1ccccc1SCC(=O)N1CCCC1` the Potency was inconclusive [inhibitor, single point]. In the case of `CCOC(=O)c1ccccc1NC(=O)COC(=O)C1CC(=O)N(CCc2ccccc2)C1` (configuration not stated), the Potency is reported as inconclusive [inhibitor, single point]. With `c1ccc2c(c1)Sc1ccccc1N2CCN1CCCC1` the Potency was inconclusive [inhibitor, single point]. For `Cc1cc(C)n2nc(SCc3nnc(SCc4ccccc4C)s3)nc2n1`, the Potency was inconclusive [inhibitor, single point]. In the case of `COCCCNC(=S)N1CCCN(c2nc3cc(C)c(C)cc3cc2C#N)CC1`, the Potency is reported as inconclusive [inhibitor, single point]. With `O=C(COc1ccccc1Cl)N1CCNC1=O` the “activity change, negative = growth inhibition” value was inactive: -1.93%. In the case of `CN1CCN(c2nc(-c3ccc(Br)cc3)nnc2-c2ccccc2)CC1`, the Potency is reported as active: 11.6 µM. With `C[C@H](NC(=O)[C@H](Cc1ccccc1)n1c(=O)[nH]c2ccccc2c1=O)C(=O)N1CCC(C(=O)O)CC1` the “activity change, negative = growth inhibition” value was inactive: -4.06%. In the case of `Cc1cccc(NC(=O)CSC2=Nc3ccccc3C3=NC(CC(=O)NCc4cccs4)C(=O)N23)c1` (configuration not stated), the Potency is reported as inconclusive [inhibitor, single point]. In the case of `CC1=C(C(=O)N(C(C)C)C(C)C)CC(CC(=O)NC2CC2)C(=O)N1Cc1ccc(C(C)(C)C)cc1` (configuration not stated), the Potency is reported as active: 29.1 µM. With `Cc1nc(SC(C)C(=O)NC2CCCCC2C)c2c(C)c(C)sc2n1` (configuration not stated) the “activity change, negative = growth inhibition” value was inactive: -21.5%. In the case of `Cc1ccc(S(=O)(=O)N2CCCCC2)cc1NC(=O)CCNC(=O)c1ccccc1Cl`, the “activity change, negative = growth inhibition” value is reported as inactive: -27.7%. In the case of `CCOC(=O)N1CCN(Cc2ccc3c(c2)CN(C(=O)c2noc4c2CCCC4)CCO3)CC1`, the Potency is reported as active: 20.6 µM. With `CNC(=O)/C(C#N)=C/c1c(F)cccc1Cl` the Potency was active: 9.2 µM. In the case of `O=C(COc1ccccc1C(=O)Nc1ccccc1)Nc1ccccc1-c1ccccc1`, the Potency is reported as inconclusive [inhibitor, single point]. With `CC1(C)CC(=O)c2sc(N)nc2C1` the “activity change, negative = growth inhibition” value was inactive: 3.79%. In the case of `COc1ccc(CCNS(=O)(=O)c2cccc(C(=O)O)c2)cc1OC`, the Potency is reported as active: 16.4 µM. With `COc1ccccc1C1CC(c2ccccc2)=NN1C(=O)c1ccccc1` (configuration not stated) the Potency was inconclusive [inhibitor, single point]. With `CC(=O)c1ccc(NC(=O)CSc2nnc(-c3ccoc3C)n2Cc2ccccc2)cc1` the “activity change, negative = growth inhibition” value was inactive: -26.7%. In the case of `COc1cccc(OCc2cc(/C=N/Nc3ccc(C(=O)O)cc3)ccc2OC)c1`, the Potency is reported as active: 20.6 µM. For `NC(=O)C1=C(N=C2CCCCC2)CCCC1`, the “activity change, negative = growth inhibition” value was inactive: -20.3%. With `CCCCNc1c(-c2ccc(OC)c(SC(C)CC)c2)nc2cc(C)ccn12` (configuration not stated) the Potency was active: 23.5 µM and active: 14.6 µM. With `COc1ccc(-c2nc3cc(C)ccc3cc2CN(C(=O)c2ccc(C)s2)C2CC2)cc1OC` the Potency was active: 20.6 µM. For `Cc1ccc(Cl)cc1NC(=O)c1ccccc1OCC(=O)Nc1ccc(Cl)cc1`, the Potency was active: 5.8 µM. For `CCc1nc2c(OCCn3cccc3)cccn2c1N(C=O)Cc1ccccc1`, the Potency was inconclusive [inhibitor, single point]. For `O=C(NCCn1cccn1)C1CCC(=O)N(CCc2cccc(F)c2)C1` (configuration not stated), the “activity change, negative = growth inhibition” value was inactive: 18.9%. For `CCOC(=O)N1CCN(S(=O)(=O)c2ccc(OCC)cc2)CC1`, the “activity change, negative = growth inhibition” value was inactive: -27%. For `Cc1cccn2c(=O)c(C=C(C#N)C#N)c(N3CCN(c4cccc(Cl)c4)CC3)nc12`, the Potency was inconclusive [inhibitor, single point]. In the case of `O=C(NC(=S)NCc1ccccc1)c1cccnc1`, the “activity change, negative = growth inhibition” value is reported as inactive: -10.2%. In the case of `COc1ccc(N=Nc2nc3ccc(Br)cc3n2C)cc1`, the Potency is reported as inconclusive [inhibitor, single point]. With `COc1ccc(C(O)c2nc(-c3ccc4ccccc4c3)cs2)cc1` (configuration not stated) the Potency was active: 16.4 µM. For `C#CCn1c(=NC(=O)c2ccc(S(=O)(=O)N3CCCc4ccccc43)cc2)sc2cc(S(N)(=O)=O)ccc21`, the Potency was active: 14.6 µM. For `Nc1nonc1-n1nnc(C(=O)N/N=C/C=C/c2ccccc2)c1CSC1=NCCS1`, the Potency was inconclusive [inhibitor, single point]. For `C[C@@H]1CN([C@@H](C)CO)C(=O)c2cccc(NC(=O)Nc3ccc(F)cc3)c2O[C@@H]1CN(C)Cc1ccc(Oc2ccccc2)cc1`, the Potency was active: 18.4 µM. For `O=C(CN(C(=O)c1csnn1)c1cccc2ccccc12)NC1CCCC1`, the “activity change, negative = growth inhibition” value was inactive: 4.53%. With `CCOc1ccc(-n2nc(C(=O)NCCOC)c3ccccc3c2=O)cc1` the Potency was inconclusive [inhibitor, single point]. With `CCOC(=O)C1CCN(C(=O)c2ccccc2CCc2ccccc2)CC1` the Potency was inconclusive [inhibitor, single point]. For `COc1cccc(COc2ccc3c(C)c(Cc4ccccc4)c(=O)oc3c2)c1`, the Potency was inconclusive [inhibitor, single point]. In the case of `COc1ccc(C(C)=O)cc1COC(=O)CSCC(=O)Nc1ccc(C)cc1`, the “activity change, negative = growth inhibition” value is reported as inactive: -0.861%. For `CCOC(=O)COc1ccc(CC)cc1C(=O)c1ccn2nc(-c3ccc(F)cc3)cc2n1`, the Potency was inconclusive [inhibitor, partial curve, poor fit]. For `COc1ccc(-c2noc(CC(=O)N(C)c3cccc(C)c3)n2)cc1`, the Potency was inconclusive [inhibitor, single point].
